Test results published in the RNAGym collection of RNA variant scans (doi:10.1101/gad.245936.114).
This sample is rich in variants without activity.

B1: tRNA (parent)
chain: CUCUCGGUAGCCAAGUUGGUUUAAGGCGCAAGACUUUAAUUUAUCACUACGAAAUCUUGAGAUCGGGCGUUCGACUCGCCCCCGGGAGAUUUUUUCCUCGAGCAA

Variants of: B1
Experiment: nonsense suppression (GFP-seq) (ratio to wild type); higher = more function; SUP4oc tRNA, yeast GFP reporter sort-seq
Procedure, shortened: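 Nonsense suppression (GFPSEQ) is the median GFP/RFP ratio of each sorting bin, weighted by the variant's estimated share of cells in that bin and expressed relative to the unmutated parent tRNA. Yeast strains carried genome-integrated variants of an ochre-suppressor tRNA from a library with ~3% random mutations, plus a galactose-driven GFP ochre reporter and RFP, and were grown in raffinose/galactose medium containing 80 mg/L adenine. Cells were sorted into GFP/RFP bins, each bin was Illumina-sequenced (phred ≥30), and variants were kept only with ≥100 reads and ≥30 cells.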

Nonsense suppression, ≤ 0.026:
CUCUCGGUAGGCAAGUUGGUUUAAGGCGCAAGACUUUAAUUUAUCACUACGAAGUCUUGAGAUCGGGCGUUCGACUCGCCCCCGGGAGAUUUUUUCCUCGAGCAA
CUCUCGGUAGGCAAGUUGGUUUCGCGCGCAAGAUGUUAAUUUAUCACUACGAAAUCUUGAGAUCGGGCGUUCGACUCGCCCCCGGGAGAUUUUUUCCUCGAGCAA
CUCUCGGUAGGCUAGUUGGUUUAAGGCGCAAGACUUUAAUUUAUCACUACGAAGUCUUGAGCUCGGGAGUUCGACUCGCCCCCGGGAGAUUUUUUCCUCGAGCAA
CUCUCGGUAGGCAAGUUGGUUUAAGGCGCUAGACUUUAAUUUAUCACUACGAAAUCUUGAGAUCGGGCGUUCGACUCGCCCCCGGGAGAUUUUUUCCUCGAGCAA
CUCUCGGUAGGCAAGUUGGUUUAAGGCGUAAGACUUUAAUUUAUCACUACGAAAUCUUGAGAUCGGGCGUUCGACUCGCCCCCGGGAGAUUUUUUCCUCGAGCAA
CUCUCGGUAGGCAAGUUGGUUUAAGGCGAAAGACUUUAAUUUAUCACUACGAAAUCUUGAGAUCGGGCGUUCGACUCGCCCCCGGGAGAUUUUUUCCUCGAGCAA
CUCUCGGUAGGCAAGUUAGUUUAAGGCGCAAGACUUUAAUUUAUCACUACGAAAUCUUGCGAUCGGGCGUUCGACUCCCCCCCGGGAGAUUUUUUCCUCGAGCAA
CUCUCGGUAGGGAAGUUGGUUUAAGGCGCAGGACUUUAAUUUAUCACUACGAAAUCUUGAGAUCGGGCGUUCCACUCGCCCCCGGGAGAUUUUUUCCUCGAGCAA
CUCUCGGUAGGCAAGUUGGUUUAAGGCGCAAGAAUUUAAUUUAUCACUACGAAAUCUUGAGAACCGGCGUUCGACUCGCCCCCGGGAGAUUUUUUCCUCGAGCAA
CUCUCGGUAGGCAAGUUGGUUUAAGGCGCAAGACUUUAAUUUAUCACUACGAAAUCUUGUGCUCGGGCGUUCGACUCGGCACCCGGAGAUUUUUUCCUCGAGCAA
CUCUCGGUAGGCAAGUUGGUUUAAGGCGCAAUACUUUAAUUUAUCACUACGAAAUCUUGACAUCGGGCGUUCGACUCGCCCCCGGGAGAUUUUUUCCUCGAGCAA
CUCUCGGUAGGCAAGUUGAUUUAAGGCGCAAGACUUUAAUUUAUCACUACGAAAUCUUGAGUUCGGGCGUUCGACUCGCCCCCGGGAGAUUUUUUCCUCGAGCAA
CUCUCGGUAGGCAAGUUGGUUUAUGGCGCAAGACUUUAAUUUAUCACUACGAAAUCUUGAGAUCGGGUGUUCGACUCGCCCCCGGGAGAUUUUUUCCUCGAGCAA
CUCUCGGUAGGCAAGUUGGUUUAAGGCGGAAGACUUUAAUUUAUCACUACGAAAUCUUGAGAUCGGGCGUUGGACUCGCCCCCGGGAGAUUUUUUCCUCGAGCAA
CUCUCGGUAGGCAAGUUGGUUUCAGGCGCAAGACUUUAAUUUAUCACUACGAAAUCUUGAGAUCGGGCGUUCGACUCGCCCCCGGGAGAUUUUUUCCUCGAGCAA
CUCUCGGUAGGAAAGUUGGUUUAGGGCGCAAGACUUUAAUUUAUCACUACGAAAUCUUGAGAUCGGGCGUUCGACUCGCCCCCGGGAGAUUUUUUCCUCGAGCAA
CUCUCGGUAGGCAAGUUGGUUUAAGGCGCAAGACUUUAAUUUAUCACUACGAAAUCUUGGGAUCGGGCGUUCGACUCGCCCCCGGGAGAUUUUUUCCUCGAGCAA
CUCUCGGUAGGCAAGUUGGUUUAAGGCGCAAGACUUUAAUUUAUCACUACGAAAUCUUGCGAUCGGGCGUUCGACUCGCCCCCGGGAGAUUUUUUCCUCGAGCAA
CUCUCGGUAGGCAAGUUGGUUUAAGGCGCAAGACUUUAAUUUAUCACUACGAAUUCUUGAGAUCGGGUGUUCGACUCGCCCCCGGGAGAUUUUUUCCUCGAGCAA
CUCUCGGUAGGCAAGUUGGUUUAGGGCGCAAGACUUUAAUUUAUCACUACGAAAUCUUGAGAUCGGGCGUUCGGCUCGCCCCCGGGAGAUUUUUUCCUCGAGCAA
CUCUCGGUAGGCAAGUUGGUUUAGGGCGCAAGACUUUAAUUUAUCACUACGAAAUCUUGAGAUCGGGCGUUCGUCUCGCCCCCGGGAGAUUUUUUCCUCGAGCAA
CUCUCGGUAGGCAAGUUGGUUUAAAGCGCAAGACUUUAAUUUAUCACUACGAAAUCUUGAGAUCGGGCGUUCGACUCGCCCCCGGGAGAUUUUUUCCUCGAGCAA
CUCUCGGUAGGCAAGUUGGUUUAAGGCGCAAGACUUUAAUUUAUCACUACGAAAUCUUGAGUUCGGGCGUUCGACUCGCCCCCGGGAGAUUUUUUCCUCGAGCAA
CUCUCGGUAGGCAAUUUGGUUUAAGGCGCAAGAAUUUAAUUUAUCACUACGAAAUCUUGAGAUCGGGCGUUCGACUCGCCCCCGGGAGAUUUUUUCCUCGAGCAA
CUCUCGGUAGGCAAGUUGGUUUAAGGCGCAAGACUUUAAUUUAUCACUACGAAAUCUUGAGAUCGUGCGUUCGACUCGCCCCCGGGAGAUUUUUUCCUCGAGCAA
CUCUCGGUAGGCAAGUUGGUUUAAGGCGCAAUACUUUAAUUUAUCACUACGAAAUCUUGAGAUCGGGCGUUCGACUCGCCCCCGGGAGAUUUUUUCCUCGAGCAA
CUCUCGGUAGGCAAGUUGGUUUAAGCCGCAAGAUUUUAAUUUAUCACUACGAAAUCUUGAGAUCGGGCGUUCGACUCGCCCCCGGGAGAUUUUUUCCUCGAGCAA
CUCUCGGUAGGCAAGUUGGUUUAAGGCGCAACACUUUAAUUUAUCACUACGAAAUCUUGAGAUUGCGCGUUCGACUCGCCGCCGGGAGAUUUUUUCCUCGAGCAA
CUCUCGGUAGGCAAGUUGGUUUUAGGCCCAAGACUUUAAUUUAUCACUACGAAAUCUUGAGAUCGGGCGUACGACUCGCCCCCGGGAGAUUUUUUCCUCGAGCAA
CUCUCGGUAGGCAAGUUGGUUUAAGGCGCAAGACUUUAAUUUAUCACUACGAAUUCUUGAGAUCGGGCGUUCGACUCGCGCCCGGGAGAUUUUUUCCUCGAGCAA
CUCUCGGUAGGCAAUUUGGUUUAAGGCGCAAGACUUUAAUUUAUCACUACGAAAUCUUGAGAUCGGGCGUUCGACUCGCCCCCGGGAGAUUUUUUCCUCGAGCAA
CUCUCGGUAGGCAAGUUGGUUUAAGGCGCAAGACUUUAAUUUAUCACUACGAAAUCUUGAGAUCGUGCGUUCGACUCGCCCCCGGGAGCUUUUUUCCUCGAGCAA
CUCUCGGUAGGUAAGUUGGUUUAAGGCGCAAGACUUUAAUUUAUCACUACGAAAUCUUGACAUCGGGCGUUCGACUCGCCCCCGGGAGAUUUUUUCCUCGAGCAA
CUCUCGGUAGGCAAGUUGGUUUAAGGCGCAAGACUUUAAUUUAUCACUACGAAAUCUUUAGAUCGGGCGUUCGACUUGCCCCCGGGAGAUUUUUUCCUCGAGCAA
CUCUCGGUAGGCAGGUUGGUUUAAGGCGCAAGACUUUAAUUUAUCACUACGAAAUCUUGAUAUCGGGCGUUCGACUCGCCCCCGGAAGAUUUUUUCCUCGAGCAA
CUCUCGGUAGGCAAGUUGGUUUAGGGCGCAAGACUUUAAUUUAUCACUACGAAAUCUUGAGAUCGGGUGCUGGACUGGCCCCCGGGAGAUUUUUUCCUCGAGCAA
CUCUCGGUAGGCAAGUUGGUUUAAGGCGCAAGACUUUAAUUUAUCACUACGAAAUCUUGAGUUCGGGCGUUCGACUCGCCCCCGGGAAAUUUUUUCCUCGAGCAA
CUCUCGGUAGGCAAGUUGGUUUAAGGCGCAAGACUUUAAUUUAUCACUACGAAAUCUUGAGAUCGGGCGUUCGACUCGCCCGCGGGAGAUUUUUUCCUCGAGCAA
CUCUCGGUAGGCAAGUUGGUUUACGGCGCAAGACUUUAAUUUAUCACUACGAAAUCUUGAGAUCGGGCGUUCGACUCGCCCCAGGGAGAUUUUUUCCUCGAGCAA
CUCUCGGUAGGCAAGUUGGUUUAAGGCGCAAGACUUUAAUUUAUCACUACGAAAUCUUGAGAUCGGGCGUUCGACUCGCACCCGGGAGAUUUUUUCCUCGAGCAA
CUCUCGGUAGGCAAGUUGGUUUAAGGCGCAAGACUUUAAUUUAUCACUACGAAAUCUUGAGAUCGGGCGUUCGACUCGCCCCAGGGAGAUUUUUUCCUCGAGCAA
CUCUCGGUAGGCAAGUUGGUUUAAGUCGCAAGACUUUAAUUUAUCACUACGAAAUCUUGAGAUCGGGCGUUCGACUCGCCCCCGGGAGAUUUUUUCCUCGAGCAA
CUCUCGGUAGGCAUGUUGGUUUAAGGCGCAAGACUUUAAUUUAUCACUACGAAAUCUUGAGAACGGGCUUUCGACUCGCCCCCGGGAGAUUUUUUCCUCGAGCAA
CUCUCGGUAGGCAAGUUGGUUUAAGGCGCAGGACUUUAAUUUAUCACUACGAAAUCUUGAGAUCGGGCGUUCGACUCGCCCCCGGGAGAUUUUUUCCUCGAGCAA
CUCUCGGUAGGCAAAUUGGUUUAAGGCGCCAGAAUUUAAUUUAUCACUACGAAAUCUUGAGAUCGGGCGUUCGACUCGCCCCCGGGAGAUUUUUUCCUCGAGCAA
CUCUCGGUAGGCAAGUUGGUUUAAGGCGCAAGACUUUAAUUUAUCACUACGAAAUCUUGAAAUCGGGCGUUCGACUCGCCCCCGGGCGAUUUUUUCCUCGAGCAA
CUCUCGGUAGGCAAGUUGGUUUAAUGCGCAAGACUUUAAUUUAUCACUACGAAAUCUUGAAAUCGGGCGUUCGACUCGCCCCCGGGAGAUUUUUUCCUCGAGCAA
CUCUCGGUAGGCAAGUUGGUUUAAGGCGCAAGACUUUAAUUUAUCACUACGAAAUCUUGAGAUCGGGCGUUCGAGUCGCCCCCGGGAGAUUUUUUCCUCGAGCAA
CUCUCGGUAGGCAAGUUGGUUUAAGGCGCAAGACUUUAAUUUAUCACUACGAAAUCUUGAUAUCGGGCGUUCGACUCGCCCCCGGGAGAUUUUUUCCUCGAGCAA
CUCUCGGUAGGCAAGUUGGUUUAAGGCGCAAGACUUUAAUUUAUCACUACGAAAUCUUGAAAUCGGGCGUUCGACUCGCCCCCGGGAGAUUUUUUCCUCGAGCAA
CUCUCGGUAGGCAAGUUGGUUUAAGGCGCAAGACUUUAAUUUAUCACUACGAAAUCUUAAGAUAGGGCGUUCGACUCGCCCCCGGGAGAUUUUUUCCUCGAGCAA
CUCUCGGUAGGCAAGUUGGUUUAAGGCCAAAGACCUUAAUUUAUCACUACGAAAUCUUGAGAUCGGGCGUUCGACUCGCCCCCGGGAGAUUUUUUCCUCGAGCAA
CUCUCGGUAGGCGAGUUGGUUUAUGGCGCAAGAGUUUAAUUUAUCACUACGAAAUCUUGAGAUCGGGCGUUCGACUCGCCCCCGGGAGAUUUUUUCCUCGAGCAA
CUCUCGGUAGGCAAGUUGGUUUAAGGCGCUAGACAUUAAUUUAUCACUACGAAUUCUUGAGAUCGGGCGUUCGACUCGCCCCCGGGAGAUUUUUUCCUCGAGCAA
